This note sets out measurements from article PMC3160840.

Amino acid sequences for entries named in this document (tags omitted).
UniProt P15682: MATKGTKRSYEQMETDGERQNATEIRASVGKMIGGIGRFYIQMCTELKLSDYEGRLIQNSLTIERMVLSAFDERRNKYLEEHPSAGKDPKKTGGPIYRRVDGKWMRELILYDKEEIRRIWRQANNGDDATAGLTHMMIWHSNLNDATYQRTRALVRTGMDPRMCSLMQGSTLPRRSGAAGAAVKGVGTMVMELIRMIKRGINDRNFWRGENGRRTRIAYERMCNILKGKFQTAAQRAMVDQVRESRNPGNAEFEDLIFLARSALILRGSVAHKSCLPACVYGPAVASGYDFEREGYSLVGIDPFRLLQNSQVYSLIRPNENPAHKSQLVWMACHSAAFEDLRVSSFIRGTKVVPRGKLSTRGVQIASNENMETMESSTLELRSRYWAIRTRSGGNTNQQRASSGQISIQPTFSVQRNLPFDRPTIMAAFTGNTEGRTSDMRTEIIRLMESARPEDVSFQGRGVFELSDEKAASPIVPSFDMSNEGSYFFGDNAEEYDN
UniProt P03430: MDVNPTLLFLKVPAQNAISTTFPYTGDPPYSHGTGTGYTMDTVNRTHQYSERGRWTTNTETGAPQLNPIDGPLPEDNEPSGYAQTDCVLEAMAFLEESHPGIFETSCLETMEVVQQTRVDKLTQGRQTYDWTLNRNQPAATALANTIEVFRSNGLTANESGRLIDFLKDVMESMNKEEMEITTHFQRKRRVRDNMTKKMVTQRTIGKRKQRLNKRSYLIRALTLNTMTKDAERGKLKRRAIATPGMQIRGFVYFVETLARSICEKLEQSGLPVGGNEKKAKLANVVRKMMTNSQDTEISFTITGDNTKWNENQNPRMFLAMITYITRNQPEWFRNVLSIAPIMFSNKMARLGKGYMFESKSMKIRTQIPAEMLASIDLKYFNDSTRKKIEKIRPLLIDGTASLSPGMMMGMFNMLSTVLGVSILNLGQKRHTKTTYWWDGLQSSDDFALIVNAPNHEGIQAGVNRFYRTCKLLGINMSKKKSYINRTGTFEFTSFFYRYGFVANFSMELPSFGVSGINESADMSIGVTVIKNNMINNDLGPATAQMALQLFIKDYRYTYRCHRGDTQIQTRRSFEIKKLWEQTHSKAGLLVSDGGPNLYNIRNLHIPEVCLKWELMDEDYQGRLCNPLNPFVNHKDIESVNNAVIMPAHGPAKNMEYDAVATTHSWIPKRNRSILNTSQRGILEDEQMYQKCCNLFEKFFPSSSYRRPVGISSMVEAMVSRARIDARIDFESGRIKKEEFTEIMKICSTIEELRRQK
UniProt P03427: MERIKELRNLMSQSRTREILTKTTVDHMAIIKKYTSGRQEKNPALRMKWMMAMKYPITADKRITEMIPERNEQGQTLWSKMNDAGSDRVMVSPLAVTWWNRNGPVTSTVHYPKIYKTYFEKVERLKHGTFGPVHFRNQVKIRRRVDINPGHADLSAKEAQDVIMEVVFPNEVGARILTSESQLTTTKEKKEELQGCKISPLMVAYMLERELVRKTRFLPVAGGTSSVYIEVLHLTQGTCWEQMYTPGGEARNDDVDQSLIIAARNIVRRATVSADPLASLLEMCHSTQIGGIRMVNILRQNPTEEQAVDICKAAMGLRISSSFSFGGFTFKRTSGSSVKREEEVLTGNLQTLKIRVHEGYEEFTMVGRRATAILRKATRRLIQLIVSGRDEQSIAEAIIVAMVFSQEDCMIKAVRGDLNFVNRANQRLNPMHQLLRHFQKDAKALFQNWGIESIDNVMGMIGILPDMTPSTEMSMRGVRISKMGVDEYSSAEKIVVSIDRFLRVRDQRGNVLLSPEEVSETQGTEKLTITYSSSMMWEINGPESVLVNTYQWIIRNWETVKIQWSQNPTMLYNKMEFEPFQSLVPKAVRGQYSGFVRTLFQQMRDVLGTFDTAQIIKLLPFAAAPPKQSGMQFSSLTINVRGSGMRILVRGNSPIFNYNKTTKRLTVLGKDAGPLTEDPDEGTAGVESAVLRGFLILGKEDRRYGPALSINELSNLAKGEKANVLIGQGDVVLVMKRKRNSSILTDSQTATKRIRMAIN
UniProt Q9UNP9: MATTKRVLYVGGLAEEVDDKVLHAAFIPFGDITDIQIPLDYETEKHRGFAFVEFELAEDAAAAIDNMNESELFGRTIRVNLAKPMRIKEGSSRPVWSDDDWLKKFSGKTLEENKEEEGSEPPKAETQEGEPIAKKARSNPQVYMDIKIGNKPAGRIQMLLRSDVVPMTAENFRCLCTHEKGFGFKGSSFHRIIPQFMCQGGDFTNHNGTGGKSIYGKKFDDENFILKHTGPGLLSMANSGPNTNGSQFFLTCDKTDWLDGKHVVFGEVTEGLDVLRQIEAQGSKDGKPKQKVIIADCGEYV

No constants are given. Whether binding was seen depends on the method and setting. In cells and extracts the contact can be indirect. Some results given as binding are weak or reduced against the parent protein; the word gives no strength.

Assay [1] concerns the target FLAG-tagged NP (influenza A virus A/WSN/33 (H1N1)) (UniProt P15682). Put plainly: co-IP.
Assay [2] has as its target FLAG-tagged PB1 (influenza A virus A/WSN/33 (H1N1)) (UniProt P03430). Put plainly: co-IP.
For assay [3], the target named is FLAG-tagged PB2 (influenza A virus A/WSN/33 (H1N1)) (UniProt P03427). Briefly: co-IP.
Assay [4] has as its target GST-CypE (Cyclophilin E fused to GST) (human) (UniProt Q9UNP9). Briefly: pull-down; only the target purified.
The target in assay [5] is NP in 293T cells infected with A/WSN/33 (influenza A virus A/WSN/33 (H1N1)) (UniProt P15682). Briefly: co-IP.

As for “Myc-tagged CypE (from UniProt Q9UNP9 1-301)”, the binding result in assay [1] is on record as “binds”; in assay [2] it was “no binding”; in assay [3], “no binding”.
Regarding “NP from MDCK cells infected with influenza A virus (A/WSN/33) (from UniProt P15682 1-498)”, the binding entry in assay [4] is listed as “binds”.
For the substance “endogenous CypE (from UniProt Q9UNP9 1-301)”, in assay [5], the binding entry is reported as “binds”.
